{"source": "PubChem BioAssay AID1347165", "about": "(National Center for Advancing Translational Sciences (NCATS), 2019)", "note": "Values joined by “and” are separate entries in the source; they are usually repeats but may differ in a detail not shown here. Equal values may be shown once. The whole screen tested about 220,000 compounds, of which about 5,700 (2.6%) were called active. Inconclusive results, whose numbers are uncertain, are shown with a selection of clear calls. Calls come from the whole dose curve; as a rule, active = well fitted inhibition curve with a large enough effect; inconclusive = small, poorly fitted or top-dose-only effect; inactive = no such curve, though single readings can be large or run the other way. Potencies of inconclusive entries are doubtful fits and often do not repeat. Potency is the fitted concentration of half-maximal effect; tags give direction and shape of the fitted curve.", "data": [{"target": "Lysine-specific demethylase 5B (Homo sapiens) (UniProt Q9UGL1)", "sequence (Q9UGL1 whole entry, looked up)": "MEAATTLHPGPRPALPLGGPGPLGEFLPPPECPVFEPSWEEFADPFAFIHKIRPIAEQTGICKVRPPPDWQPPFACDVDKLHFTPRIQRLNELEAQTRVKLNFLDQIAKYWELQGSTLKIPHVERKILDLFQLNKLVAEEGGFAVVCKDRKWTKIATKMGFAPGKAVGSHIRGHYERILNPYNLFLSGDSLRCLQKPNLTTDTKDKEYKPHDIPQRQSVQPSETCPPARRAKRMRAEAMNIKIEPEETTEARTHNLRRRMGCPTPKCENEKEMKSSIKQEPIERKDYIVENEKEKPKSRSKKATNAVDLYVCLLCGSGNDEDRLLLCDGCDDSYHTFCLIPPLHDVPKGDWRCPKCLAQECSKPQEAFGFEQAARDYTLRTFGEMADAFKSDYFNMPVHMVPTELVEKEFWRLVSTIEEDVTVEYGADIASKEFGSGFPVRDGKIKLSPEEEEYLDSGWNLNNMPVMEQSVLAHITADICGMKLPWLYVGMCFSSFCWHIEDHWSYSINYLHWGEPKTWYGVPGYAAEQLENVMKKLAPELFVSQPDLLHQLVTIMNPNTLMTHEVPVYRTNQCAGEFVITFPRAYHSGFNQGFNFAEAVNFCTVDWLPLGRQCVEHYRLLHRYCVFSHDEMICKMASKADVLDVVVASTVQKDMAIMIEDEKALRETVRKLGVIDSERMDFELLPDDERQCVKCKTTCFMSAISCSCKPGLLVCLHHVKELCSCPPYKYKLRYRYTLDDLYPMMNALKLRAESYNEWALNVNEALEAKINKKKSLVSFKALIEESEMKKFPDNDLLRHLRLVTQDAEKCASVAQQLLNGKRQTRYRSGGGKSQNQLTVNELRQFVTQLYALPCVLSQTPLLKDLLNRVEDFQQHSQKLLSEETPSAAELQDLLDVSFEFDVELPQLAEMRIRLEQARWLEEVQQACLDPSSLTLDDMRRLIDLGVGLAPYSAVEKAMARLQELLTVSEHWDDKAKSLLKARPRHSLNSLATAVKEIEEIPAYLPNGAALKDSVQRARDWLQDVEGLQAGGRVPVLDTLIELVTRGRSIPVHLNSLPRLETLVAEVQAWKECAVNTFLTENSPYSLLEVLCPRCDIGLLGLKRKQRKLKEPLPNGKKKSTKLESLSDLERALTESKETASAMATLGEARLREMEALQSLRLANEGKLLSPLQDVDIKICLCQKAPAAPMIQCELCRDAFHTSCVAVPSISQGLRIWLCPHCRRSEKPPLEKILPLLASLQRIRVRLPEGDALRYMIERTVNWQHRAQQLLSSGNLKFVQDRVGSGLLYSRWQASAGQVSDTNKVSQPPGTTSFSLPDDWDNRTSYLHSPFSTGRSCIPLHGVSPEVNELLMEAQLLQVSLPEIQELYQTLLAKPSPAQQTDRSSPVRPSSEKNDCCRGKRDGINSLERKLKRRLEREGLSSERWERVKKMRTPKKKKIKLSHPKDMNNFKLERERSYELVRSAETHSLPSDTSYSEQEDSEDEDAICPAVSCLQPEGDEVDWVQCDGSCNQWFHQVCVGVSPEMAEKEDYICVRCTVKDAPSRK", "assay": "Primary screen for KDM5B Histone Demethylases FDH-coupled qHTS; note: nearly all actives have a fitted effect of over 70% in size; for activity change, negative = inhibition: 0% is about no effect", "conditions": "FDH-coupled NADH fluorescence (FDH is formaldehyde dehydrogenase); activity change, negative = inhibition: at 57.7 µM (top of the series)", "how_it_was_run": "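Here, H3K4me3 peptide (12.5 µM in substrate mix) is demethylated by KDM5BΔAP, 200 nM final, after 10 min compound exposure. Formaldehyde product is coupled through FDH (0.25 U/mL in mix) to NADH fluorescence; 30-min ΔRFU feeds dose-response curves.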", "values": [{"smiles": "Cc1ccc(C(C)(C)C)c(OCC(=O)Nc2ccc(Cl)cc2C(=O)c2ccccc2)c1", "activity change, negative = inhibition": "inactive: 6.92%"}, {"smiles": "COc1cc2c(cc1OCc1ccccc1)NC(=O)C21CCN(c2ncc(F)cn2)CC1", "Potency": "active: 31.6 µM"}, {"smiles": "CC(=O)Nc1ccc(-c2ccc3n(c2=O)C[C@H]2C[C@@H]3CN(C3CCN(C)CC3)C2)cc1", "Potency": "active: 39.8 µM"}, {"smiles": "O=C(Nc1ccc2n(c1=O)C[C@H]1C[C@@H]2CN(C(=O)Nc2ccccc2)C1)c1ccncc1", "Potency": "inconclusive: 28.2 µM [inhibitor, partial curve]"}, {"smiles": "CSc1ccc(CN2CCN(C(=O)COc3ccc(C)cc3)CC2)cc1", "Potency": "inconclusive: 14.1 µM [inhibitor, partial curve, poor fit]"}, {"smiles": "CN1CCN(C(=O)Cc2c[nH]c3ncc(-c4ccc(CO)cc4)cc23)CC1", "Potency": "inconclusive: 31.6 µM [inhibitor, partial curve, poor fit]"}, {"smiles": "COc1cc2c(cc1OCc1ccccc1)NC(=O)C21CCN(c2nc(C)cnc2C)CC1", "Potency": "active: 28.2 µM"}, {"smiles": "COc1ccc(OC)c(NC(=O)Cn2cc(C(=O)c3ccccc3)c3ccccc32)c1", "Potency": "inconclusive: 15.8 µM [inhibitor, partial curve, poor fit]"}, {"smiles": "c1ccc(CC2CN3CCCC3CN2)cc1", "note": "(stereo unspecified)", "Potency": "inconclusive: 141 µM [inhibitor, partial curve, poor fit]"}, {"smiles": "COc1cc2c(cc1OCC1CC1)NC(=O)C21CCN(C(=O)CCc2cccnc2)CC1", "activity change, negative = inhibition": "inactive: 14.7% [at 86.2 µM]"}, {"smiles": "CC(Cc1ccccc1)NCC(=O)Nc1cc(N(C)C)nc2ccccc12", "note": "(stereo unspecified)", "Potency": "inconclusive: 12.6 µM [inhibitor, partial curve, poor fit]"}, {"smiles": "CC(NC(=O)Cn1cc(C(=O)c2ccccc2)c2ccccc21)c1ccccc1", "note": "(stereo unspecified)", "Potency": "inconclusive: 39.8 µM [inhibitor, single point]"}, {"smiles": "COc1cc2c(cc1CCc1ccccc1)N(C(=O)c1c[nH]c3ccccc13)CC21CCN(C(C)=O)CC1", "Potency": "inconclusive: 35.5 µM [inhibitor, single point]"}, {"smiles": "O=C(c1ccccc1)N1C[C@@H]2C[C@H](C1)c1ccc(-c3cccc(C(F)(F)F)c3)c(=O)n1C2", "Potency": "active: 25.1 µM"}, {"smiles": "CCc1ccccc1NC(=O)c1cccn(Cc2ccccc2F)c1=O", "Potency": "inconclusive: 2 µM [inhibitor, full curve, poor fit]"}, {"smiles": "Cc1cc(C)n(CC(=O)N2[C@H]3CC[C@@H]2c2cnc(-c4ccc(F)cc4)nc2C3)n1", "activity change, negative = inhibition": "inactive: -8.66%"}, {"smiles": "Cn1cc(CNCC2(CO)C[C@@H](O)[C@@H](O)C2)c2ccccc21", "note": "(stereo partly specified)", "Potency": "inactive"}, {"smiles": "O=C1Nc2ccccc2C12CCN(CC1CCCCC1)CC2", "activity change, negative = inhibition": "inactive: 0.251% [at 149 µM]"}, {"smiles": "O=C1NCCCCCN(Cc2cccnc2)[C@H]2CCC[C@@H]12", "Potency": "inconclusive: 22.4 µM [inhibitor, partial curve, poor fit]"}, {"smiles": "CSc1ccc(-c2ccc(=O)n3c2[C@@H]2C[C@@H](CN(S(C)(=O)=O)C2)C3)cc1", "Potency": "active: 35.5 µM"}, {"smiles": "O=C(Nc1ccc2c(c1)OCCO2)c1cccn(Cc2cccc(F)c2)c1=O", "Potency": "inconclusive: 39.8 µM [inhibitor, single point]"}, {"smiles": "CC1CCN(C[C@H]2CN3CC[C@H]2C[C@@H]3CNC(=O)Nc2ccsc2)CC1", "activity change, negative = inhibition": "inactive: 12.6% [at 86.2 µM]"}, {"smiles": "Cc1cc(-c2cc3c(cn2)CN(CC(C)C)CCN3)ccn1", "Potency": "inconclusive: 35.5 µM [inhibitor, partial curve, poor fit]"}, {"smiles": "CNC(=O)Oc1ccc(C(=O)N2c3ccccc3NC(=O)C2C)cc1", "note": "(stereo unspecified)", "activity change, negative = inhibition": "inactive: 16.1%"}, {"smiles": "Cc1nc(-c2ccccc2Br)cc([C@H]2CN3CC[C@H]2C[C@@H]3CNS(=O)(=O)c2cccs2)n1", "activity change, negative = inhibition": "inactive: -15.9%"}, {"smiles": "COc1ccc2c(C)c(C(=O)N3CCC(C#N)(c4ccccc4)CC3)oc2c1", "Potency": "active: 20 µM"}, {"smiles": "O=C(c1cn2c(n1)CNCC2)N1C[C@H](c2ccccc2)[C@@H]2[C@H]1C1CCN2CC1", "Potency": "inconclusive: 8.91 µM [inhibitor, partial curve, poor fit]"}, {"smiles": "O=c1cccc2n1CC1CC2CN(S(=O)(=O)c2cc(Cl)ccc2Cl)C1", "note": "(stereo unspecified)", "activity change, negative = inhibition": "inactive: 14.4%"}, {"smiles": "Cn1nc(-c2ccc3ccccc3c2)cc1[C@H]1CN2CC[C@H]1C[C@@H]2CNC(=O)Nc1cccc(C#N)c1", "activity change, negative = inhibition": "inactive: -3.42%"}, {"smiles": "CCn1cc(S(=O)(=O)N2[C@H]3CC[C@@H]2c2cnc(C)nc2C3)cn1", "activity change, negative = inhibition": "inactive: -2.85%"}, {"smiles": "CN(CC1CCCCC1)C1CCc2ccccc2C1", "note": "(stereo unspecified)", "activity change, negative = inhibition": "inactive: 6.93% [at 86.2 µM]"}, {"smiles": "NCCc1cccc(N)n1", "Potency": "inconclusive: 25.1 µM [inhibitor, partial curve, poor fit]"}, {"smiles": "Cc1cnc(CCN)n1CC1CC1", "Potency": "active: 7.94 µM"}, {"smiles": "CN1c2ncccc2CN(Cc2ccccn2)CC[C@H]1CO", "Potency": "active: 31.6 µM"}, {"smiles": "N#Cc1ccc(NC(=O)CSc2ccc3c(c2)OCCCO3)cc1Cl", "activity change, negative = inhibition": "inactive: -11.3%"}, {"smiles": "CCCS(=O)(=O)N1[C@H]2CC[C@@H]1c1cnc(-c3ccc(F)cc3)nc1C2", "activity change, negative = inhibition": "inactive: 28.5%"}, {"smiles": "O=C(c1ccc(F)cc1)N1C[C@@H]2C[C@H](C1)c1c(-c3cncnc3)ccc(=O)n1C2", "activity change, negative = inhibition": "inactive: -1.49% [at 86.2 µM]"}, {"smiles": "CCC(CC)c1cc([C@H]2CN3CC[C@H]2C[C@@H]3CNC(=O)c2ccc(N(C)C)cc2)nc(-c2ccncc2)n1", "Potency": "inconclusive: 17.8 µM [inhibitor, single point]"}, {"smiles": "COc1cccc(Nc2cc3c(cn2)CN(C)CCN3C)c1", "Potency": "inconclusive: 28.2 µM [inhibitor, partial curve, poor fit]"}, {"smiles": "Cc1ccccc1-c1cnc2[nH]cc(CC(=O)N3CCN(C)CC3)c2c1", "Potency": "active: 31.6 µM"}, {"smiles": "COc1cccc(CC(=O)N2[C@H]3CC[C@@H]2c2cnc(-c4ccc(F)cc4)nc2C3)c1", "activity change, negative = inhibition": "inactive: -13.9%"}, {"smiles": "CCCCC(=O)N/N=C/c1c(O)n(Cc2ccc(F)cc2)c(=O)[nH]c1=O", "Potency": "inconclusive: 31.6 µM [inhibitor, partial curve, poor fit]"}, {"smiles": "Cn1nccc1CN1CCCC2(CC(c3ccccn3)=NO2)C1", "note": "(stereo unspecified)", "activity change, negative = inhibition": "inactive: -6.59% [at 86.2 µM]"}, {"smiles": "Cc1nc(-c2ccc(N(C)C)cc2)cc([C@H]2CN3CC[C@H]2C[C@@H]3CNC(=O)C(C)(C)C)n1", "Potency": "active: 31.6 µM"}, {"smiles": "c1cc2nc(C3CCNCC3)[nH]c2cn1", "Potency": "inconclusive: 89.1 µM [inhibitor, partial curve] and inconclusive: 31.6 µM [inhibitor, single point]"}, {"smiles": "O=C(NCCc1cnc2ccccn12)C1CC2(CCNCC2)CN1", "note": "(stereo unspecified)", "Potency": "inconclusive: 28.2 µM [inhibitor, partial curve, poor fit]"}]}]}
